Assay results taken from the supplement of paper PMC8728848.
Some of the results follow.

How the values were obtained:
Assay in all cases: glycan array binding signal (z-score within array); higher = stronger binding
Conditions in all cases: glycan notation: IUPAC condensed, linker removed
[1] = biological target: Neu5Ac(a2-3)Gal(b1-4)GlcNAc(b1-2)[Neu5Ac(a2-3)Gal(b1-4)GlcNAc(b1-4)]Man(a1-3)[GlcNAc(b1-4)][Neu5Ac(a2-3)Gal(b1-4)GlcNAc(b1-2)[Neu5Ac(a2-3)Gal(b1-4)GlcNAc(b1-6)]Man(a1-6)]Man(b1-4)GlcNAc(b1-4)GlcNAc
Outline: (§1)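 The Consortium for Functional Glycomics database supplied 3228 glycan arrays, of which those lacking an available protein sequence were dropped. The binding signal, a within-array Z-score, was averaged across arrays of the same protein sequence and across linkers. Negative scores can be read as non-binding.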

[2] = biological target: Neu5Ac(a2-3)Gal(b1-4)GlcNAc(b1-2)[Neu5Ac(a2-3)Gal(b1-4)GlcNAc(b1-4)]Man(a1-3)[GlcNAc(b1-4)][Neu5Ac(a2-3)Gal(b1-4)GlcNAc(b1-4)Man(a1-6)]Man(b1-4)GlcNAc(b1-4)GlcNAc
Outline: as §1

[3] = biological target: Neu5Ac(a2-3)Gal(b1-4)GlcNAc(b1-2)[Neu5Ac(a2-3)Gal(b1-4)GlcNAc(b1-6)]Man(a1-6)[Neu5Ac(a2-3)Gal(b1-4)GlcNAc(b1-2)Man(a1-3)]Man(b1-4)GlcNAc(b1-4)GlcNAc
Outline: as §1

[4] = biological target: Neu5Ac(a2-3)Gal(b1-4)GlcNAc(b1-2)[Neu5Ac(a2-3)Gal(b1-4)GlcNAc(b1-6)]Man(a1-6)[Neu5Ac(a2-3)Gal(b1-4)GlcNAc(b1-2)Man(a1-3)][GlcNAc(b1-4)]Man(b1-4)GlcNAc(b1-4)GlcNAc
Outline: as §1

[5] = biological target: Neu5Ac(a2-3)Gal(b1-4)GlcNAc(b1-3)Gal
Outline: as §1

[6] = biological target: Neu5Ac(a2-3)Gal(b1-4)GlcNAc(b1-3)Gal(b1-3)GlcNAc
Outline: as §1

[7] = biological target: Neu5Ac(a2-3)Gal(b1-4)GlcNAc(b1-3)Gal(b1-4)GlcNAc
Outline: as §1

[8] = biological target: Neu5Ac(a2-3)Gal(b1-4)GlcNAc(b1-3)Gal(b1-4)GlcNAc(b1-2)Man(a1-3)[Neu5Ac(a2-3)Gal(b1-4)GlcNAc(b1-3)Gal(b1-4)GlcNAc(b1-2)Man(a1-6)]Man(b1-4)GlcNAc(b1-4)GlcNAc
Outline: as §1

[9] = biological target: Neu5Ac(a2-3)Gal(b1-4)GlcNAc(b1-3)Gal(b1-4)GlcNAc(b1-3)Gal(b1-4)GlcNAc
Outline: as §1

[10] = biological target: Neu5Ac(a2-3)Gal(b1-4)GlcNAc(b1-3)Gal(b1-4)GlcNAc(b1-3)Gal(b1-4)GlcNAc(b1-2)Man(a1-3)[Neu5Ac(a2-3)Gal(b1-4)GlcNAc(b1-3)Gal(b1-4)GlcNAc(b1-3)Gal(b1-4)GlcNAc(b1-2)Man(a1-6)]GalNAc
Outline: as §1

[11] = biological target: Neu5Ac(a2-3)Gal(b1-4)GlcNAc(b1-3)Gal(b1-4)GlcNAc(b1-3)GalNAc
Outline: as §1

[12] = biological target: Neu5Ac(a2-3)Gal(b1-4)GlcNAc(b1-3)Gal(b1-4)GlcNAc(b1-3)[Neu5Ac(a2-3)Gal(b1-4)GlcNAc(b1-3)Gal(b1-4)GlcNAc(b1-6)]GalNAc
Outline: as §1

[13] = biological target: Neu5Ac(a2-3)Gal(b1-4)GlcNAc(b1-3)Gal(b1-4)GlcNAc(b1-6)[Gal(b1-3)]GalNAc
Outline: as §1

[14] = biological target: Neu5Ac(a2-3)Gal(b1-4)GlcNAc(b1-3)Gal(b1-4)[Fuc(a1-3)]GlcNAc
Outline: as §1

[15] = biological target: Neu5Ac(a2-3)Gal(b1-4)GlcNAc(b1-3)GalNAc
Outline: as §1

[16] = biological target: Neu5Ac(a2-3)Gal(b1-4)GlcNAc(b1-3)[Neu5Ac(a2-3)Gal(b1-4)GlcNAc(b1-6)]GalNAc
Outline: as §1

[17] = biological target: Neu5Ac(a2-3)Gal(b1-4)GlcNAc(b1-6)GalNAc
Outline: as §1

[18] = biological target: Neu5Ac(a2-3)Gal(b1-4)GlcNAc(b1-6)[Gal(b1-3)]GalNAc
Outline: as §1

[19] = biological target: Neu5Ac(a2-3)Gal(b1-4)GlcNAc(b1-6)[Neu5Ac(a2-3)Gal(b1-3)]GalNAc
Outline: as §1

[20] = biological target: Neu5Ac(a2-3)Gal(b1-4)GlcNAc6S
Outline: as §1

[21] = biological target: Neu5Ac(a2-3)Gal(b1-4)[Fuc(a1-3)]GlcNAc
Outline: as §1

[22] = biological target: Neu5Ac(a2-3)Gal(b1-4)[Fuc(a1-3)]GlcNAc(b1-2)Man
Outline: as §1

[23] = biological target: Neu5Ac(a2-3)Gal(b1-4)[Fuc(a1-3)]GlcNAc(b1-3)Gal
Outline: as §1

[24] = biological target: Neu5Ac(a2-3)Gal(b1-4)[Fuc(a1-3)]GlcNAc(b1-3)Gal(b1-4)GlcNAc
Outline: as §1

[25] = biological target: Neu5Ac(a2-3)Gal(b1-4)[Fuc(a1-3)]GlcNAc(b1-3)Gal(b1-4)[Fuc(a1-3)]GlcNAc(b1-3)Gal(b1-4)[Fuc(a1-3)]GlcNAc
Outline: as §1

[26] = biological target: Neu5Ac(a2-3)Gal(b1-4)[Fuc(a1-3)]GlcNAc(b1-3)GalNAc
Outline: as §1

[27] = biological target: Neu5Ac(a2-3)Gal(b1-4)[Fuc(a1-3)]GlcNAc(b1-6)[Gal(b1-3)]GalNAc
Outline: as §1

B1: Nictaba (Nicotiana tabacum), Q94EW1 (protein)
chain: MQGQWIAARDLSITWVDNPQYWTWKTVDPNIEVAELRRVAWLDIYGKIETKNLIRKTSYAVYLVFKLTDNPRELERATASLRFVNEVAEGAGIEGTTVFISKKKKLPGELGRFPHLRSDGWLEIKLGEFFNNLGEDGEVEMRLMEINDKTWKSGIIVKGFDIRPN
[1]
  glycan array binding signal (z-score): -0.386
[2]
  glycan array binding signal (z-score): -0.383
[3]
  glycan array binding signal (z-score): -0.33
[4]
  glycan array binding signal (z-score): -0.384
[5]
  glycan array binding signal (z-score): -0.217
[6]
  glycan array binding signal (z-score): -0.252
[7]
  glycan array binding signal (z-score): -0.247
[8]
  glycan array binding signal (z-score): 0.597
[9]
  glycan array binding signal (z-score): -0.162
[10]
  glycan array binding signal (z-score): -0.255
[11]
  glycan array binding signal (z-score): -0.388
[12]
  glycan array binding signal (z-score): -0.386
[13]
  glycan array binding signal (z-score): -0.389
[14]
  glycan array binding signal (z-score): -0.261
[15]
  glycan array binding signal (z-score): -0.308
[16]
  glycan array binding signal (z-score): -0.389
[17]
  glycan array binding signal (z-score): -0.385
[18]
  glycan array binding signal (z-score): -0.207
[19]
  glycan array binding signal (z-score): -0.302
[20]
  glycan array binding signal (z-score): -0.146
[21]
  glycan array binding signal (z-score): -0.258
[22]
  glycan array binding signal (z-score): -0.388
[23]
  glycan array binding signal (z-score): -0.241
[24]
  glycan array binding signal (z-score): -0.244
[25]
  glycan array binding signal (z-score): -0.273
[26]
  glycan array binding signal (z-score): -0.217
[27]
  glycan array binding signal (z-score): -0.249
